# Measurements taken from PubChem BioAssay AID588342 (National Center for Advancing Translational Sciences (NCATS), 2011).
# In all, about 360,000 compounds went through this assay and about 25,000 (6.9%) were called active. The inconclusive results got no clear call from the source; some entries with a clear call stand among them for comparison. Calls come from the whole dose curve; as a rule, active = well fitted inhibition curve with a large enough effect; inconclusive = small, poorly fitted or top-dose-only effect; inactive = flat fitted curve, though single readings scatter. Potencies beside an inconclusive call are fits to weak or partial responses and may not hold up.
# Biological target: Luciferin 4-monooxygenase (Photinus pyralis) (UniProt P08659)
# Chain of UniProt P08659 (P08659 whole entry, looked up): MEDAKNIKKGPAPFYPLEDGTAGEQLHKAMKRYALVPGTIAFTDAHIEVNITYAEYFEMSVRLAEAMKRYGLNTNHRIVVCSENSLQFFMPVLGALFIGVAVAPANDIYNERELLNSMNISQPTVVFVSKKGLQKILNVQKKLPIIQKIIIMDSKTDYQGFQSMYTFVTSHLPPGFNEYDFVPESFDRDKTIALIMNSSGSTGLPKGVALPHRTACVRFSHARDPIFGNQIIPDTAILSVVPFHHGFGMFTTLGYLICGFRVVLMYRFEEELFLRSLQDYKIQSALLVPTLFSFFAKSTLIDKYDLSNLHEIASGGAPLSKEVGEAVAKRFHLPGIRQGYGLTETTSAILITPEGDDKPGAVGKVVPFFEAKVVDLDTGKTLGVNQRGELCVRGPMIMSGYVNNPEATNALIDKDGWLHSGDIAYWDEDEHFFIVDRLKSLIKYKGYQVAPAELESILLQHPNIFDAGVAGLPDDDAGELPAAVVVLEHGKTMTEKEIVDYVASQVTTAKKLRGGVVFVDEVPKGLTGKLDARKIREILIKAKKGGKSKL
# Assay: qHTS profiling assay for firefly luciferase inhibitor/activator using purifed enzyme and Km concentrations of substrates (counterscreen for miR-21 project); note: nearly all actives have a fitted effect of over 55% in size;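 for activity change, negative = inhibition: plate controls were vehicle for no effect and reference inhibitor for full effect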
# Conditions: purified FLuc, luminescence inhibition; activity change, negative = inhibition: at 57.5 µM (top of the series)
# Outline: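 Purified P. pyralis luciferase (10nM final) with 10uM D-luciferin and 10uM ATP (Km levels) in 50mM Tris acetate pH 7.5, 10mM Mg acetate, 0.01% Tween-20, 0.05% BSA; qHTS 6-point titration, ~60 µM downward; luminescence read.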
# Potency is the fitted concentration of half-maximal effect; tags give direction and shape of the fitted curve.
SMILES,Potency,"activity change, negative = inhibition"
COn1c(-c2ccc(C)cc2)nc2ncccc21,"inconclusive: 26.9 µM [inhibitor, single point]",
O=C(CSc1nc2ccccc2[nH]1)N1CCCCC1,active: 21.3 µM,
O=C(NC1CCCCCC1)c1ccc(CN2CCOCC2)cc1,active: 16.9 µM,
Cc1cccc(NC(=O)C2CCN(c3nc4ccccc4[nH]3)CC2)c1C,,inactive: 2.15%
Cc1c2ccccc2nc2c(F)c(NCCO)c(F)c(F)c12,active: 21.3 µM,
O=C(NC1CC1)c1cc2c(s1)-c1ccccc1OC2,active: 12 µM,
CCN(CC)S(=O)(=O)c1cccc(C(=O)N[C@H](C(=O)Nc2nc3ccc(F)cc3s2)C(C)C)c1,"inconclusive: 37.9 µM [inhibitor, single point]",
CCN(Cc1ccccc1)Cc1nnnn1Cc1ccccc1,"inconclusive: 0.0107 µM [inhibitor, partial curve, poor fit]",
Nc1[nH]c(N=NC(=O)c2ccc(F)cc2)c2ccccc12,active: 7.57 µM,
Cn1ccnc1SCC(=O)c1ccc(Br)cc1,"inconclusive: 21.3 µM [inhibitor, single point]",
Cc1cc(NC(=O)CSc2nc3c(cc2C#N)CCCCC3)no1,"inconclusive: 5.36 µM [inhibitor, full curve]",
COc1ccc(-c2cnnn2-c2ccc(NC(=O)/C=C/c3ccc(OC)c(OC)c3)cc2)cc1,,inactive: -1.04%
COc1cc2c(cc1OC)C(C)N(C(=O)C1COc3ccccc3O1)CC2 (configuration not stated),,inactive: -2.29%
Cn1c(N)c(C(=O)Nc2ccc3ccccc3c2)sc1=S,"inconclusive: 1.35 µM [inhibitor, partial curve, poor fit]",
CCCc1cc(C(=O)Nc2ccccc2SC)no1,"inconclusive: 37.9 µM [inhibitor, partial curve, poor fit]",
COc1cc(SC)ccc1C(=O)Nc1ccc2c(c1)CCC2,active: 2.13 µM,
Cc1noc(/C=C/c2nn(C)cc2Cl)c1[N+](=O)[O-],"inconclusive: 37.9 µM [inhibitor, partial curve, poor fit]",
NS(=O)(=O)c1ccc(NC(=S)N2CCC(Cc3ccccc3)CC2)cc1,"inconclusive: 23.9 µM [inhibitor, single point]",
CC(C)c1ccc(N(CC(=O)NCc2ccc(F)cc2)C(=O)c2csnn2)cc1,"inconclusive: 0.0135 µM [inhibitor, full curve]",
COc1cccc(-c2cn3nc(C)c(C)nc3n2)c1,active: 10.7 µM,
COc1cccc(-c2cc(C(=O)Nc3cccc(O)c3)no2)c1,active: 0.426 µM,
NC(=O)NCCCC(=O)NCC(c1ccccc1Cl)c1c[nH]c2ccccc12 (configuration not stated),,inactive: 1.11%
Cc1ccc(-n2nnnc2SCC(=O)N2CC(=O)Nc3ccccc32)cc1,,inactive: 1.96%
CCc1ccc(NC(=O)C(=O)N/N=C(\C)CC(=O)NCCOC)cc1,"inconclusive: 21.3 µM [inhibitor, partial curve, poor fit]",

SMILES,Potency,"activity change, negative = inhibition"
COc1ccc(NC(=O)Nc2cccc(F)c2)c(OC)c1,"inconclusive: 16.9 µM [inhibitor, partial curve, poor fit]",
Cc1cc(NC(=O)C2CC2)n(-c2nc3ccccc3s2)n1,active: 15.1 µM,
CCN(CC(=O)Nc1ccc2c(c1)OCCO2)C(=O)/C=C/c1ccccc1,"inconclusive: 37.9 µM [inhibitor, partial curve, poor fit]",
CCOC(=O)C1CCN(C(=S)Nc2ccc(CC)cc2)CC1,"inconclusive: 26.9 µM [inhibitor, single point]",
Cc1nnc(SCC(=O)Nc2ccc3c(c2)OCCO3)s1,"inconclusive: 26.9 µM [inhibitor, partial curve]",
CC1(C)CC(=O)C=C(NCCN2CCN(C(=S)Nc3ccccc3)CC2)C1,,inactive: 2.19%
O=C(c1cc(-c2cccc(O)c2)on1)N1CCCC1,active: 6.01 µM,
COc1cc(/C=N/NC(=O)CNC(=O)c2cccs2)ccc1O,"inconclusive: 16.9 µM [inhibitor, partial curve]",
O=c1cc(O)nc(-c2ccc(Cl)cc2)s1,"inconclusive: 30.1 µM [inhibitor, partial curve, poor fit]",
O=C(Cc1cccs1)NCc1cccc(C(F)(F)F)c1,"inconclusive: 16.9 µM [inhibitor, partial curve]",
COC(=O)c1ccc(COc2ccccc2OC)o1,"inconclusive: 26.9 µM [inhibitor, partial curve, poor fit]",
Cc1nc(NCCc2ccccc2)sc1C(=O)N(C)C,,inactive: -18.9%
CCOC(=O)c1sc2nc(NC(=O)COc3ccccc3)sc2c1C,"inconclusive: 21.3 µM [inhibitor, single point]",
Cc1c(NC(=S)NC(=O)c2ccc(-c3ccc(Cl)cc3)o2)cccc1C(=O)O,"inconclusive: 21.3 µM [inhibitor, single point]",
CCOc1cc(C=O)cc(N=Nc2cccc([N+](=O)[O-])c2)c1O,"inconclusive: 37.9 µM [inhibitor, single point]",
CC(OC(=O)/C=C/c1ccc2ccccc2n1)C(=O)Nc1ccc(S(N)(=O)=O)cc1 (configuration not stated),,inactive: 5.8%
COc1ccccc1-c1nn2c(C3COc4ccccc4O3)nnc2s1 (configuration not stated),"inconclusive: 23.9 µM [inhibitor, partial curve, poor fit]",
Cc1c(CCNC(=O)c2ccco2)sc2nc(-c3ccc(F)cc3)nn12,"inconclusive: 23.9 µM [inhibitor, partial curve, poor fit]",
CCN(CC)c1cc2c(cc1F)c(=O)c(S(=O)(=O)c1ccc(OC)cc1)cn2Cc1ccccc1,,inactive: -7.34%
O=C(NCC1CCCO1)c1onc(CSc2cccc3ccccc23)c1C(=O)O (configuration not stated),"inconclusive: 30.1 µM [inhibitor, single point]",
O=C(CCc1nnc2n(Cc3ccc(F)cc3)c(=O)c3ccccc3n12)NCCN1CCOCC1,,inactive: 0.484%
Cc1ccccc1Nc1c(-c2ccc(Br)o2)nc2ccc(Cl)cn12,"inconclusive: 23.9 µM [inhibitor, partial curve, poor fit]",
CCc1ccc(NC(=O)Cc2c(C(=O)O)c(C)cn2C)cc1,"inconclusive: 13.5 µM [inhibitor, partial curve]",
